# From article PMC6919601, “Identification of Plasmodium dipeptidyl aminopeptidase allosteric inhibitors by high throughput screening” (PLoS ONE, 2019)
# The whole screen tested about 110,000 compounds, of which about 230 (0.21%) showed an effect of 50% or more. Some of the results follow.
# Target: DPAP1 (Plasmodium falciparum, UniProt Q8IIJ9)
# Assay: primary screen, percent inhibition; read by cleavage of a fluorogenic dipeptide substrate; higher = more effect of the substance
# Set-up: species or system P. falciparum D10 trophozoite lysates; single well
# 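Note: 30 min substrate incubation versus DMSO and 10 µM JCP410 controls.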
# Chain of DPAP1 (Q8IIJ9 whole entry, looked up): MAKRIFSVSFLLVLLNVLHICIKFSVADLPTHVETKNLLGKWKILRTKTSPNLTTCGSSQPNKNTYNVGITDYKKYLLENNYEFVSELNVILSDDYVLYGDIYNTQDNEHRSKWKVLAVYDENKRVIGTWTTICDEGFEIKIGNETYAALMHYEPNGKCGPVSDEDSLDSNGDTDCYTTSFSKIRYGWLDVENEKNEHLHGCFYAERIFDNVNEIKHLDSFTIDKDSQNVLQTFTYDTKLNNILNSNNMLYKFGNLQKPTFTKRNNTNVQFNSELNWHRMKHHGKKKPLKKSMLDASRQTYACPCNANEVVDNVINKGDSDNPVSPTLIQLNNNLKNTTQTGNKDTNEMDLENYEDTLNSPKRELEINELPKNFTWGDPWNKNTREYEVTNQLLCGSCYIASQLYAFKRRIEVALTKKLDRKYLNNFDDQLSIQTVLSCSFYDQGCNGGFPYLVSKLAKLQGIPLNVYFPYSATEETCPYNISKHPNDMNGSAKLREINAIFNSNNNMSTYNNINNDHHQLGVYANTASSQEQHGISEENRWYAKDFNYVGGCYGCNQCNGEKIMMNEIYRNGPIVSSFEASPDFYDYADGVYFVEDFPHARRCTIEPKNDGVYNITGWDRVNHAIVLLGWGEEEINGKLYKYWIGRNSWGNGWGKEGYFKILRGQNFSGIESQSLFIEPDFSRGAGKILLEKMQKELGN
row,Compound,% Inhibition @ 10 uM [%]
1,Fc1ccccc1N1CCN(Cc2ccc(Cl)cc2Cl)CC1,-4.5
2,COc1cccc(-n2nnc3c(=O)n(CC(=O)NCc4ccc5c(c4)OCO5)cnc32)c1,-5.79
3,CSc1ccc(OC2CCN(Cc3ccccc3)CC2)cc1,0.658
4,CCC(C(=O)NC1CCCCC1C)n1sc2ccccc2c1=O (centres unmarked),1.15
5,COc1ccc(OC)c(C2C(C#N)=C(N)Oc3[nH]nc(-c4ccccc4)c32)c1 (centres unmarked),-2.24
6,COc1cc2c(cc1OC)C(C(=O)NC1CCCCC1)C(c1cccnc1)N(C)C2=O (centres unmarked),2.59
7,CCOC(=O)N1CCC(NC(c2ccccc2)c2ccccc2)CC1,-1.5
8,CCN(CC)c1ncnc2sc3c(c12)CCCC3,-5.05
9,O=C(NCCc1ccccc1)c1noc2c1CCCCC2,-3.12
10,O=C(CSc1ncccn1)NC(=O)c1ccccc1,3.66
11,COC1CCCCC1NC1CCCCCC1 (centres unmarked),-1.54
12,Cc1cccc(NC(=O)c2cccc(Cn3cc(Cl)cn3)c2)n1,5.52
13,O=C(c1ccccc1)c1ccc(N2CCCC2)c(F)c1,-3.09
14,CC(=O)N1N=C(c2ccccc2)CC1c1ccccc1 (centres unmarked),-1.86
15,CCN(Cc1ccccc1)Cc1cc(Cl)ccc1O,3.15
16,CCOc1ccc(NC(=O)c2c(NC(=O)c3ccco3)sc3c2CCCC3)cc1,1.08
17,Cc1[nH]c2ccccc2c1Cc1nnc(S)n1C,3.93
18,FC(F)(F)c1cccc(-c2noc(-c3cccc(Br)c3)n2)c1,3.94
19,CC(C)(C)Nc1nc(Cl)nc(NCc2cccnc2)n1,-3.14
20,CN(C)CCCN1C(=O)CSC1c1ccccc1 (centres unmarked),-3.77
21,Cc1ccc(C(=O)N/C(=C/c2cccnc2)C(=O)N2CCCCCC2)cc1,4.07
22,CCOC(=O)N1CCN(C(=O)c2ccc(CS(=O)c3cccc(C)c3)o2)CC1 (centres unmarked),1.22
23,O=C(Cn1c(NCCO)nc2ccccc21)c1ccc(-c2ccccc2)cc1,-6.02
24,CCC(CO)Nc1ncnc2c1cnn2-c1ccc(OC)cc1 (centres unmarked),-1.97
25,Cc1ccc2nc(O)c3cc(C(=O)NCC4CCCO4)sc3c2c1 (centres unmarked),5.12
26,O=C(CCCSc1nc(O)c2c3c(sc2n1)CCCC3)NCCO,-1.08
27,Cc1oc(-c2cccc(Cl)c2)nc1CS(=O)(=O)CC(=O)NCC(C)c1ccccc1 (centres unmarked),7.96

row,Compound,% Inhibition @ 10 uM [%]
1,CC(C(=O)NCCN1CCCC1)(c1ccccc1)c1ccccc1,-7.5
2,COc1ccc(CCNC(=O)CCc2nc3cccnc3n2Cc2cccs2)c(OC)c1OC,-7.13
3,COc1ccc2cc3cc(C(=O)N(C)C4CCCCC4)oc3nc2c1,0.208
4,c1ccc(CN2CCOCCOCCN(Cc3ccccc3)CCOCCOCC2)cc1,-0.759
5,COc1ccc(C(=O)N2CCN(Cc3ccccc3Br)CC2)cc1,-12.3
6,COCCNC(=O)c1ccc2nc(-c3ccco3)c(-c3ccco3)nc2c1,1.61
7,Cc1ccccc1CC(CC(=O)O)C(=O)O (centres unmarked),12.9
8,COc1cc(C(=O)NCCc2c(C)[nH]c3ccccc23)cc(OC)c1OC,1.72
9,Cc1cccc(NS(=O)(=O)c2ccccc2)n1,-3.56
10,CN(C)CCN(C)Cc1ccsc1,3.47
11,Cc1ccc(C(=O)/C=C/c2cccc(F)c2)o1,-5.5
12,COc1ccc(NC(=O)c2ccoc2C)cc1,5.63
13,CC(C)CCN1C(=O)c2ccccc2C1C(=O)NC1CCCCC1 (centres unmarked),-0.519
14,Cc1nc2sc(C(=O)c3ccc4c(c3)OCCO4)c(N)c2c(C)c1C,6.69
15,CCCC(=O)c1cc(C(=O)CCC)c(O)c(C)c1O,2.44
16,Cc1ccc(CNC(=O)CCn2cccn2)cc1,-5.91
17,Fc1ccc(-c2nsc3c(N4CCNCC4)ncnc23)cc1,-4.54
18,O=C1NC(=O)/C(=C\c2cccn2-c2cccc(Br)c2)S1,-2.29
19,CC1CCc2c(sc3ncn4c(S)nnc4c23)C1 (centres unmarked),-6.87
20,Cc1nnc(C)n1/N=C/c1ccc(C(=O)O)cc1,9.21
21,CCCOc1nc(-c2ccccc2)cc(-c2ccccc2)n1,3.53
22,Cc1ccc(N2C(=O)CC(N3CCN(C/C=C/c4ccccc4)CC3)C2=O)cc1 (centres unmarked),-10.8
23,O=[N+]([O-])c1cccc(C2=Nc3ccccc3C(c3ccccc3)(c3ccccc3)O2)c1,1.29
24,O=C1c2cccc3cccc(c23)C(=O)N1Cc1ccco1,22.6
25,O=C(Nc1cccc(F)c1)NC1CCCCC1,-0.351
26,CC(C)c1nc(N2CCN(C(=O)c3ccco3)CC2)c(C#N)c2c1COC(C)(C)C2,1.03
